Measurements reported in the supplement of paper PMC10600219.
Structures can show the parent of a compound that is named as a salt. Over roughly 2,800 compounds, “cell viability relative to vehicle” has its median near 1.1; the lowest 2% begin near 0.19. The list shows a part of the results.

These molecules were tested on NCI-H2228 parental (assay: cell viability relative to vehicle (fraction of vehicle); NCI-H2228 is an ALK-positive lung cancer line and DTP means drug-tolerant persister; higher = less growth inhibition). Conditions: 100 nM; treatment time 6 days.
Outline: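 NCI-H2228 parental cells and drug-tolerant persister cells were plated in 384-well plates; the persisters had been generated with 1000 nM of a targeted drug over 13 days. One day later, the 3114-agent TargetMol anti-cancer compound library was added at 100 nM, with DMSO serving as vehicle. ATP was measured 6 days after that using the CellTiter-Glo 3D Cell Viability Assay. Values are cell viability expressed relative to vehicle-treated cells.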

| Structure (SMILES) | cell viability |
| --- | --- |
| CCCCc1nc2ccc(NC(=O)NC3CCCCC3)cc2n1Cc1ccc(-c2ccccc2C(=O)O)cc1 | 1.08 |
| C[C@@]1(CO)C[C@@H](O)C[C@@]2(C)[C@@H]3CC[C@](C)([C@@H](O)CO)C=C3CC[C@H]12 [Kirenol] | 1.1 |
| C[C@@H]1C(=O)O[C@H](C)[C@H]1C[C@@H](O)[C@](C)(O)[C@H]1CC[C@@]2(O)C3=CC(=O)[C@@H]4C[C@@H](O)[C@@H](O)C[C@]4(C)[C@H]3CC[C@]12C [Cyasterone] | 1.15 |
| C[C@H]1O[C@@H](O[C@H]2CC[C@@]3(C)[C@@H](CC[C@]4(C)[C@@H]3C=C[C@]35OC[C@@]6(CCC(C)(C)C[C@H]63)[C@@H](O)C[C@]54C)[C@]2(C)CO)[C@H](O)[C@@H](O[C@@H]2O[C@H](CO)[C@@H](O)[C@H](O)[C@H]2O)[C@H]1O [Saikosaponin A] | 1.11 |
| CC(C)=CCc1c(O)cc2oc3cc(O)c(O)c(CC=C(C)C)c3c(=O)c2c1O [gamma-Mangostin] | 0.9 |
| N#CCC1(n2cc(-c3ncnc4[nH]ccc34)cn2)CN(C2CCN(C(=O)c3ccnc(C(F)(F)F)c3F)CC2)C1 [Itacitinib] | 1.13 |
| O=C(c1ccc(C(=O)N2CCC(N3CCCC3)CC2)c(Nc2ccccc2)c1)N1CCC(N2CCCC2)CC1 | 1.16 |
| OC[C@H]1O[C@@H](Oc2ccc(O)cc2)[C@H](O)[C@@H](O)[C@@H]1O [Arbutin] | 1.1 |
| OCCN1CCN(CCCN2c3ccccc3Sc3ccc(Cl)cc32)CC1 [Perphenazine] | 0.862 |
| COc1ccc(C[C@@H]2c3cc(Oc4cc(C[C@@H]5c6cc(O)c(OC)cc6CCN5C)ccc4O)c(OC)cc3CCN2C)cc1 [Isoliensinine] | 1.05 |
| CN(C)CCc1c[nH]c2ccc(Cn3cncn3)cc12 [Rizatriptan benzoate] | 0.954 |
| CCCCNNC(=O)c1ccc(Br)cc1 | 1.07 |
| Cn1ncc(Cl)c1-c1cc(C(=O)N[C@H](CN)Cc2ccc(F)c(F)c2)oc1Cl [Uprosertib] | 0.911 |
| Fc1ccc(-c2nc3n(c2-c2ccncc2)CCS3)cc1 | 1.23 |
| O=c1c(-c2ccc(O)cc2)coc2cc(O[C@@H]3O[C@H](CO)[C@@H](O)[C@H](O)[C@H]3O)cc(O)c12 [Genistin] | 1.1 |
| C[C@H](NC(=O)CCC(F)(F)F)C(=O)N[C@@H]1C(=O)N(CCO)c2ncccc2-c2ccccc21 [Crenigacestat] | 1.05 |
| Nc1ccc(C(=O)NCC(=O)O)cc1 [4-Aminohippuric Acid] | 1.38 |
| N=C(N)NC(=N)N1CCOCC1 [Moroxydine hydrochloride] | 1.15 |
| O=C(Nc1ncc([N+](=O)[O-])s1)c1ccccc1O [Tizoxanide] | 0.937 |
| CCOC(=O)c1ccc(OCCC2CCN(c3ccc(C)nn3)CC2)cc1 [Pirodavir] | 1.04 |
| CC(=O)Oc1cccc2c1C(=O)c1c(OC(C)=O)cc(C(=O)O)cc1C2=O [Diacerein] | 1.1 |
| CCN(CC)Cc1ccc2cc(COC(=O)Nc3ccc(C(=O)NO)cc3)ccc2c1 [Givinostat hydrochloride monohydrate] | 0.693 |
| CC(C)(C#N)c1ccc(N2C(=O)OCc3cnc4ccc(-c5cnc6ccccc6c5)cc4c32)cc1 | 1.06 |
| CC(C)C[C@@H](C=O)NC(=O)[C@H](CC(C)C)NC(=O)[C@H](CC(C)C)NC(=O)OCc1ccccc1 | 0.3 |
| COC1=CC(c2cc3ccccc3[nH]2)=N/C1=C\c1[nH]c(C)cc1C [Obatoclax Mesylate] | 1.04 |

| Structure (SMILES) | cell viability |
| --- | --- |
| N[C@H]1C(O)O[C@H](CO)[C@@H](O)[C@@H]1O (some centres undefined) [Glucosamine] | 1.11 |
| COC(=O)C1=CO[C@@H](O[C@@H]2O[C@H](CO)[C@@H](O)[C@H](O)[C@H]2O)[C@@H]2[C@@H](C)[C@@H](O)C[C@H]12 [Loganin] | 1.06 |
| Cc1ccc(S(=O)(=O)NC(=O)NN2CC3CCCC3C2)cc1 (centres undefined) [Gliclazide] | 1.28 |
| COc1ccc(-c2cc(=O)c3c(O)cc(O)cc3o2)cc1 [Acacetin] | 1.08 |
| O=c1c(O)c(-c2cc(O)c(O)c(O)c2)oc2cc(O)cc(O)c12 [Myricetin] | 1.23 |
| OC[C@@H](O)[C@@H](O)[C@@H](O)[C@@H](O)CO [Allitol] | 1.13 |
| CCn1c(=Cc2cccc[n+]2CC)sc(=C2Sc3ccccc3N2C)c1=O | 1.04 |
| Cc1cc(Cn2cnc3c2CC(C(=O)O)N(C(=O)C(c2ccccc2)c2ccccc2)C3)ccc1N(C)C (centres undefined) | 1.13 |
| CCCCS(=O)(=O)N[C@@H](Cc1ccc(OCCCCC2CCNCC2)cc1)C(=O)O [Tirofiban hydrochloride monohydrate] | 1.11 |
| O=C(Nc1cc(C(F)(F)F)ccc1N1CCCCC1)c1ccncc1 | 1.08 |
| COc1cc2nc(N3CCN(C(=O)c4ccco4)CC3)nc(N)c2cc1OC [Prazosin hydrochloride] | 0.984 |
| NCCS(=O)(=O)O [Taurine] | 1.21 |
| Cc1ccc(NC(=O)c2ccc(CN3CCN(C)CC3)cc2)cc1Nc1nc(-c2cccnc2)cs1 [Masitinib] | 1.06 |
| CCO[C@@H]1OC(=O)C[C@@H]1NC(=O)[C@@H]1CCCN1C(=O)[C@@H](NC(=O)c1ccc(N)c(Cl)c1)C(C)(C)C [Belnacasan] | 1.06 |
| Cc1ccc(-c2nn(C(C)(C)CNC(=O)c3ccncc3)c3ncnc(N)c23)cc1 | 1.2 |
| O=C(COCC(=O)Nc1ccc(Cl)cc1C(=O)O)Nc1cccc(-c2ccoc2)c1 | 1.03 |
| C#CCN(C)Cc1ccccc1 [Pargyline] | 1.11 |
| C#CCN(C)Cc1ccccc1 [Pargyline hydrochloride] | 1.05 |
| CN(C)c1ccc(C(=O)NCCCCCCC(=O)NO)cc1 [Histone Deacetylase Inhibitor III] | 1.04 |
| COc1ccc2cc(CCC(C)=O)ccc2c1 [Nabumetone] | 1.04 |
| COc1ccc(-c2oc3c(CC=C(C)C)c(O[C@@H]4O[C@H](CO)[C@@H](O)[C@H](O)[C@H]4O)cc(O)c3c(=O)c2O[C@@H]2O[C@@H](C)[C@H](O)[C@@H](O)[C@H]2O)cc1 [Icariin] | 1.2 |
| C[C@H]1[C@@H](O)O[C@@H]2O[C@@]3(C)CC[C@H]4[C@H](C)CC[C@@H]1[C@@]24OO3 [Dihydroartemisinin] | 1.1 |
| CCn1cc(C(=O)O)c(=O)c2ccc(C)nc21 [Nalidixic acid sodium salt] | 0.867 |
| CCn1cc(C(=O)O)c(=O)c2ccc(C)nc21 [Nalidixic acid] | 0.919 |
| CCN(Cc1ccncc1)C(=O)C(CO)c1ccccc1 (centres undefined) [Tropicamide] | 1.03 |

| Structure (SMILES) | cell viability |
| --- | --- |
| CNC(=O)Nc1cc(Oc2cncc(C)c2)c(-c2ccc(OCC(C)(C)O)nc2)cn1 | 1.02 |
| Cc1nc(Nc2ccc(F)cc2)nc(N2CCc3ccccc3C2C)c1C (centres undefined) [Revaprazan hydrochloride] | 1.15 |
| Cc1ncc([N+](=O)[O-])n1CCO [Metronidazole] | 1.09 |
| O=C(Cc1cccc(OC(F)(F)F)c1)Nc1ccc(CCCCc2nnc(NC(=O)Cc3ccccn3)s2)nn1 | 1.01 |
| CCN(CC)CC#CCOC(=O)C(O)(c1ccccc1)C1CCCCC1 (centres undefined) [Oxybutynin hydrochloride] | 0.998 |
| CC(=O)O/N=C1\C(=O)N(Cc2cc(Cl)ccc2Cl)c2ccc(Cl)cc21 | 1.1 |
| COc1cc2c(cc1OC)[C@@H](Cc1ccc(O)c(Oc3cc4c(cc3OC)CCN(C)[C@@H]4Cc3ccc(O)cc3)c1)N(C)CC2 [Liensinine] | 1.18 |
| O=S(=O)(CCC(F)=C(F)F)c1ncc(Cl)s1 [Fluensulfone] | 1.07 |
| CN1C2CCCC1CC(NC(=O)c1nn(C)c3ccccc13)C2 (centres undefined) [Granisetron hydrochloride] | 0.962 |
| CC(C)N1CCN(c2ccc(OCC3COC(Cn4cncn4)(c4ccc(Cl)cc4Cl)O3)cc2)CC1 (centres undefined) [Terconazole] | 1.02 |
| CC(C)=CCc1cc(-c2coc3cc(O)ccc3c2=O)ccc1O [Neobavaisoflavone] | 1.17 |
| C=CC[C@@H]1/C=C(\C)C[C@H](C)C[C@H](OC)[C@H]2O[C@@](O)(C(=O)C(=O)N3CCCC[C@H]3C(=O)O[C@H](/C(C)=C/[C@@H]3CC[C@@H](O)[C@H](OC)C3)[C@H](C)[C@@H](O)CC1=O)[C@H](C)C[C@@H]2OC [Tacrolimus] | 1.13 |
| O=C([O-])c1ccccc1O.[Na+] [Sodium salicylate] | 1 |
| COc1ccc2[nH]cc(CCNC(C)=O)c2c1 [Melatonine] | 1.14 |
| CC(C)(C)[Si](C)(C)Oc1ccc2oc(=O)c3c(c2c1)CCCN3 | 1.02 |
| Cc1cc([N+](=O)[O-])ccc1NS(=O)(=O)c1cc(Cl)ccc1Cl | 0.882 |
| CCNC(=O)c1cc2c(-c3cc(C(C)(C)O)ccc3Oc3c(C)cc(F)cc3C)cn(C)c(=O)c2[nH]1 | 0.898 |
| COc1ccc(COc2ccc(Cc3cnc(N)nc3N)cc2OC)cc1 | 1.06 |
| COc1cc(OC)c(/C=C/S(=O)(=O)Cc2ccc(OC)c(OP(=O)(O)O)c2)c(OC)c1 [Briciclib] | 0.238 |
| CC1(C)CCC[C@](C)([C@H]2CC[C@]3(C)[C@@H]2[C@H](O)C[C@@H]2[C@@]4(C)CC[C@H](O)C(C)(C)[C@@H]4CC[C@]23C)O1 [Panaxadiol] | 1.09 |
| CCN(CC)C(=O)Cc1csc(NS(=O)(=O)c2cccc(Cl)c2C)n1 | 1 |
| COc1ccc(C[C@H](NC(=O)[C@H](C)NC(=O)CN2CCOCC2)C(=O)N[C@@H](Cc2ccccc2)C(=O)C2(C)CO2)cc1 (stereo in doubt) | 0.878 |
| CC(=O)Nc1nc(C)c(-c2ccc(Cl)c(S(=O)(=O)NCCO)c2)s1 | 1.04 |
| O=c1c(-c2ccc(O)cc2)coc2cc(O[C@@H]3O[C@H](CO)[C@@H](O)[C@H](O)[C@H]3O)ccc12 [Daidzin] | 1.14 |
